Patent US8415310B2, “Isoxazoline derivatives as antiparasitic agents” (AH USA 42 LLC, priority 2010, dated 2013)
Some results were stated once for a whole list of compounds, not compound by compound.

Each compound was assayed on Ctenocephalides felis (assay: Flea (Ctenocephalides felis) Membrane Feed Assay-Adult). Settings: adult fleas fed on treated citrated bovine blood approximately 2 hours; knockdown and/or death at approximately 2 and 24 hours.
Format: in vivo
Protocol: Flea (Ctenocephalides felis) Membrane Feed Assay-Adult
Comparative Data: Flea Feed Assay
Comparator compounds T1 and T2 were tested in the flea feed assay, as described above, and are compared to Examples 39 and 43, respectively. The compounds T1 (WO2008/122375) and T2 (US2009/0156643) represent the closet exemplified art. The data represents the 24 hour time period. Endpoint data were recorded as an lethal dose 90% (LD^90) in μg/mL. […] Comparator compounds T1 and T2 both had LD^90 values of >30 […].

Row | Compound | lethal dose 90% (LD^90) [µg/mL]
1 | 3-[3-(4-{5-[3,4-dichloro-5-(trifluoromethyl)phenyl]-5-(trifluoromethyl)-4,5-dihydroisoxazol-3-yl}phenyl)-3-fluoroazetidin-1-yl]-3-oxopropanamide [Example 64] | ≤ 3
2 | O=C(C1CC1)N1CC(O)(c2ccc(C3=NO[C@](c4cc(Cl)c(Cl)c(C(F)(F)F)c4)(C(F)(F)F)C3)cc2)C1 (single isomer, unassigned) [Example 176] | ≤ 1
3 | CC(C)C(=O)N1CC(F)(c2ccc(C3=NOC(c4cc(Cl)cc(Cl)c4)(C(F)(F)F)C3)cc2)C1 (stereo not drawn) [Example 7, 1-(3-(4-(5-(3,5-dichlorophenyl)-5-(trifluoromethyl)-4,5-dihydroisoxazol-3-yl)phenyl)-3-fluoroazetidin-1-yl)-2-methylpropan-1-one] | ≤ 1
4 | O=C(C1CCC1)N1CC(F)(c2ccc(C3=NOC(c4cc(Cl)c(F)c(Cl)c4)(C(F)(F)F)C3)cc2)C1 (stereo not drawn) [Example 17, Cyclobutyl(3-(4-(5-(3,5-dichloro-4-fluorophenyl)-5-(trifluoromethyl)-4,5-dihydroisoxazol-3-yl)phenyl)-3-fluoroazetidin-1-yl)methanone] | ≤ 3
5 | NC(=O)N1CC(F)(c2ccc(C3=NOC(c4cc(Cl)c(F)c(Cl)c4)(C(F)(F)F)C3)cc2)C1 (stereo not drawn) [Example 23, 3-(4-(5-(3,5-dichloro-4-fluorophenyl)-5-(trifluoromethyl)-4,5-dihydroisoxazol-3-yl)phenyl)-3-fluoroazetidine-1-carboxamide] | ≤ 0.3
6 | O=C(C1CCC1)N1CC(O)(c2ccc(C3=NOC(c4cc(Cl)c(Cl)c(C(F)(F)F)c4)(C(F)(F)F)C3)cc2)C1 (stereo not drawn) [Example 25, Cyclobutyl(3-(4-(5-(3,4-dichloro-5-(trifluoromethyl)phenyl)-5-(trifluoromethyl)-4,5-dihydroisoxazol-3-yl)phenyl)-3-hydroxyazetidin-1-yl)methanone] | ≤ 3
7 | CCNC(=O)N1CC(O)(c2ccc(C3=NOC(c4cc(Cl)c(Cl)c(C(F)(F)F)c4)(C(F)(F)F)C3)cc2)C1 (stereo not drawn) [Example 29, 3-(4-(5-(3,4-dichloro-5-(trifluoromethyl)phenyl)-5-(trifluoromethyl)-4,5-dihydroisoxazol-3-yl)phenyl)-N-ethyl-3-hydroxyazetidine-1-carboxamide] | ≤ 3
8 | O=C(NC1CC1)N1CC(O)(c2ccc(C3=NOC(c4cc(Cl)c(Cl)c(C(F)(F)F)c4)(C(F)(F)F)C3)cc2)C1 (stereo not drawn) [Example 30, N-cyclopropyl-3-(4-(5-(3,4-dichloro-5-(trifluoromethyl)phenyl)-5-(trifluoromethyl)-4,5-dihydroisoxazol-3-yl)phenyl)-3-hydroxyazetidine-1-carboxamide] | ≤ 3
9 | CCNC(=O)N1CC(O)(c2ccc(C3=NOC(c4cc(Cl)cc(C(F)(F)F)c4)(C(F)(F)F)C3)cc2)C1 (stereo not drawn) [Example 35, 3-(4-(5-(3-chloro-5-(trifluoromethyl)phenyl)-5-(trifluoromethyl)-4,5-dihydroisoxazol-3-yl)phenyl)-N-ethyl-3-hydroxyazetidine-1-carboxamide] | ≤ 3
10 | CC(=O)N1CC(F)(c2ccc(C3=NOC(c4cc(Cl)cc(Cl)c4)(C(F)(F)F)C3)cc2)C1 (stereo not drawn) [Example 39, 1-(3-(4-(5-(3,5-Dichlorophenyl)-5-(trifluoromethyl)-4,5-dihydroisoxazol-3-yl)phenyl)-3-fluoroazetidin-1-yl)ethanone] | ≤ 3
11 | O=C(CC1CC1)N1CC(F)(c2ccc(C3=NOC(c4cc(Cl)cc(Cl)c4)(C(F)(F)F)C3)cc2)C1 (stereo not drawn) [Example 41, 2-Cyclopropyl-1-(3-(4-(5-(3,5-dichlorophenyl)-5-(trifluoromethyl)-4,5-dihydroisoxazol-3-yl)phenyl)-3-fluoroazetidin-1-yl)ethanone] | ≤ 1
12 | O=C(CC(F)(F)F)N1CC(F)(c2ccc(C3=NOC(c4cc(Cl)cc(Cl)c4)(C(F)(F)F)C3)cc2)C1 (stereo not drawn) [Example 43, 1-(3-(4-(5-(3,5-Dichlorophenyl)-5-(trifluoromethyl)-4,5-dihydroisoxazol-3-yl)phenyl)-3-fluoroazetidin-1-yl)-3,3,3-trifluoropropan-1-one] | ≤ 1
13 | COCC(=O)N1CC(F)(c2ccc(C3=NOC(c4cc(Cl)cc(Cl)c4)(C(F)(F)F)C3)cc2)C1 (stereo not drawn) [Example 44, 1-(3-(4-(5-(3,5-Dichlorophenyl)-5-(trifluoromethyl)-4,5-dihydroisoxazol-3-yl)phenyl)-3-fluoroazetidin-1-yl)-2-methoxyethanone] | ≤ 3
14 | O=C(C1CC1)N1CC(F)(c2ccc(C3=NOC(c4cc(C(F)(F)F)cc(C(F)(F)F)c4)(C(F)(F)F)C3)cc2)C1 (stereo not drawn) [Example 48, 5-[3,5-bis(trifluoromethyl)phenyl]-3-{4-[1-(cyclopropylcarbonyl)-3-fluoroazetidin-3-yl]phenyl}-5-(trifluoromethyl)-4,5-dihydroisoxazole] | ≤ 1
15 | CC(C)C(=O)N1CC(F)(c2ccc(C3=NOC(c4cc(C(F)(F)F)cc(C(F)(F)F)c4)(C(F)(F)F)C3)cc2)C1 (stereo not drawn) [Example 49, 5-[3,5-bis(trifluoromethyl)phenyl]-3-[4-(3-fluoro-1-isobutyrylazetidin-3-yl)phenyl]-5-(trifluoromethyl)-4,5-dihydroisoxazole] | ≤ 1
16 | CCC(=O)N1CC(F)(c2ccc(C3=NOC(c4cc(Cl)cc(C(F)(F)F)c4)(C(F)(F)F)C3)cc2)C1 (stereo not drawn) [Example 51, 5-[3-chloro-5-(trifluoromethyl)phenyl]-3-[4-(3-fluoro-1-propionylazetidin-3-yl)phenyl]-5-(trifluoromethyl)-4,5-dihydroisoxazole] | ≤ 1
17 | N#CCC(=O)N1CC(F)(c2ccc(C3=NOC(c4cc(Cl)cc(C(F)(F)F)c4)(C(F)(F)F)C3)cc2)C1 (stereo not drawn) [Example 53, 3-[3-(4-{5-[3-chloro-5-(trifluoromethyl)phenyl]-5-(trifluoromethyl)-4,5-dihydroisoxazol-3-yl}phenyl)-3-fluoroazetidin-1-yl]-3-oxopropanenitrile] | ≤ 1
18 | O=C(N1CC(F)(c2ccc(C3=NOC(c4cc(Cl)c(F)c(Cl)c4)(C(F)(F)F)C3)cc2)C1)C1(O)CC1 (stereo not drawn) [Example 55, 1-[(3-{4-[5-(3,5-dichloro-4-fluorophenyl)-5-(trifluoromethyl)-4,5-dihydroisoxazol-3-yl]phenyl}-3-fluoroazetidin-1-yl)carbonyl]cyclopropanol] | ≤ 1
19 | CC(C)C(=O)N1CC(O)(c2ccc(C3=NOC(c4cc(Cl)c(Cl)c(C(F)(F)F)c4)(C(F)(F)F)C3)cc2)C1 (stereo not drawn) [Example 57, 3-(4-{5-[3,4-dichloro-5-(trifluoromethyl)phenyl]-5-(trifluoromethyl)-4,5-dihydroisoxazol-3-yl}phenyl)-1-isobutyrylazetidin-3-ol] | ≤ 3
20 | CCCC(=O)N1CC(O)(c2ccc(C3=NOC(c4cc(Cl)c(Cl)c(C(F)(F)F)c4)(C(F)(F)F)C3)cc2)C1 (stereo not drawn) [Example 58, 1-butyryl-3-(4-{5-[3,4-dichloro-5-(trifluoromethyl)phenyl]-5-(trifluoromethyl)-4,5-dihydroisoxazol-3-yl}phenyl)azetidin-3-ol] | ≤ 3
21 | CSCC(=O)N1CC(F)(c2ccc(C3=NOC(c4cc(Cl)cc(C(F)(F)F)c4)(C(F)(F)F)C3)cc2)C1 (stereo not drawn) [Example 61, 5-[3-chloro-5-(trifluoromethyl)phenyl]-3-(4-{3-fluoro-1-[(methylthio)acetyl]azetidin-3-yl}phenyl)-5-(trifluoromethyl)-4,5-dihydroisoxazole] | ≤ 3
22 | O=C(C1CCC1)N1CC(F)(c2ccc(C3=NOC(c4cc(Cl)cc(C(F)(F)F)c4)(C(F)(F)F)C3)cc2)C1 (stereo not drawn) [Example 62, 5-[3-chloro-5-(trifluoromethyl)phenyl]-3-{4-[1-(cyclobutylcarbonyl)-3-fluoroazetidin-3-yl]phenyl}-5-(trifluoromethyl)-4,5-dihydroisoxazole] | ≤ 3
23 | NC(=O)CC(=O)N1CC(F)(c2ccc(C3=NOC(c4cc(Cl)c(Cl)c(C(F)(F)F)c4)(C(F)(F)F)C3)cc2)C1 (stereo not drawn) [Example 63, 3-[3-(4-{5-[3,4-dichloro-5-(trifluoromethyl)phenyl]-5-(trifluoromethyl)-4,5-dihydroisoxazol-3-yl}phenyl)-3-fluoroazetidin-1-yl]-3-oxopropanamide] | ≤ 3
24 | CSCC(=O)N1CC(F)(c2ccc(C3=NOC(c4cc(Cl)c(Cl)c(Cl)c4)(C(F)(F)F)C3)cc2)C1 (stereo not drawn) [Example 67, 3-(4-{3-fluoro-1-[(methylthio)acetyl]azetidin-3-yl}phenyl)-5-(3,4,5-trichlorophenyl)-5-(trifluoromethyl)-4,5-dihydroisoxazole] | ≤ 3
25 | O=C(CC1CC1)N1CC(F)(c2ccc(C3=NOC(c4cc(Cl)cc(C(F)(F)F)c4)(C(F)(F)F)C3)cc2)C1 (stereo not drawn) [Example 72, 5-[3-chloro-5-(trifluoromethyl)phenyl]-3-{4-[1-(cyclopropylacetyl)-3-fluoroazetidin-3-yl]phenyl}-5-(trifluoromethyl)-4,5-dihydroisoxazole] | ≤ 1
26 | CCC(=O)N1CC(F)(c2ccc(C3=NOC(c4cc(Cl)c(Cl)c(C(F)(F)F)c4)(C(F)(F)F)C3)cc2)C1 (stereo not drawn) [Example 73, 5-[3,4-dichloro-5-(trifluoromethyl)phenyl]-3-[4-(3-fluoro-1-propionylazetidin-3-yl)phenyl]-5-(trifluoromethyl)-4,5-dihydroisoxazole] | ≤ 1
27 | O=C(C1CC1)N1CC(F)(c2ccc(C3=NOC(c4cc(Cl)c(Cl)c(C(F)(F)F)c4)(C(F)(F)F)C3)cc2)C1 (stereo not drawn) [Example 74, 3-{4-[1-(cyclopropylcarbonyl)-3-fluoroazetidin-3-yl]phenyl}-5-[3,4-dichloro-5-(trifluoromethyl)phenyl]-5-(trifluoromethyl)-4,5-dihydroisoxazole] | ≤ 1
